Hit rate of the full screen: of about 210,000 compounds, about 5,900 (2.8%) were called active. The inconclusive results got no clear call from the source; some entries with a clear call stand among them for comparison. Calls follow the shape of the dose curve; as a rule, active = well fitted activation curve with a large enough effect; inconclusive = small, poorly fitted or top-dose-only effect; inactive = no such curve, though single readings can be large or run the other way. Where the call is inconclusive, the potency comes from a doubtful curve fit.
Assay: qHTS Assay for Enhancers of SMN2 Splice Variant Expression; also: nearly all actives have a fitted effect of over 55% in size; as to activity change, positive = activation: % of control where 0% means no effect
Conditions: HEK293 SMN2-luciferase splicing reporter, luminescence, 30-36 h; activity change, positive = activation: at 46.1 µM (top of the series)
In short: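 qHTS luciferase splicing reporter: luminescence rises when SMN2 exon 7 is included in transfected HEK293 cells. Compound exposure lasted 30-36 h at 37C, with 4.5 mM final sodium butyrate as control, followed by a ONE-Glo read.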
Potency is read from the fitted curve at half-maximal effect; tags tell the direction and shape of the fitted curve.

Question: With `CCC(C)NC(=O)c1ccccc1SC` (centres undefined) as the molecule, how does the Potency read?
Answer: inactive

Question: Which Potency does the source give for `CSc1ccc(/C=N/n2c(C)cc(C)cc2=O)cc1` here?
Answer: inconclusive: 31.6 µM [activator, single point]

Question: With `CCc1cc2ccccc2nc1SCC(=O)Nc1cc(OC)c(OC)cc1C(=O)O` as the molecule, how does the Potency read?
Answer: inconclusive: 0.0398 µM [activator, full curve, poor fit]

Question: With `Cc1ccc(CN=C2Nc3ccccc3CS2)cc1` as the molecule, how does the Potency read?
Answer: active: 7.94 µM

Question: With `CCc1ccccc1Nc1ccc(C(=O)O)cc1N` as the molecule, how does the Potency read?
Answer: inconclusive: 2.82 µM [activator, full curve, poor fit]

Question: With `c1ccc(Cc2nnc3sc(-c4cccnc4)nn23)cc1` as the molecule, how does the Potency read?
Answer: inconclusive: 0.316 µM [activator, full curve, poor fit]

Question: For `O=C(COC(=O)C12CC3CC(CC(C3)C1)C2)NCCc1ccccc1`, which Potency is on record?
Answer: inactive

Question: With `Cc1cc(N/N=C/c2ccc(O)c(C)c2O)nc(-c2ccccc2O)n1` as the molecule, how does the Potency read?
Answer: inactive

Question: Which Potency does the source give for `CCCc1cc(=O)[nH]c(SCc2ccc(C#N)cc2)n1` here?
Answer: inconclusive: 0.0089 µM [activator, full curve, poor fit]

Question: Which Potency does the source give for `CCCC(=O)Nc1nnc(SCC(=O)NCc2ccc3c(c2)OCO3)s1` here?
Answer: inactive

Question: Which Potency does the source give for `CC(=O)c1cccc(NC(=O)CCC2CCCC2)c1` here?
Answer: inconclusive: 0.178 µM [activator, full curve, poor fit]

Question: For `CC1CCC(=C(C#N)c2nc(-c3cc4ccccc4oc3=O)cs2)CC1` (centres undefined), which Potency is on record?
Answer: inconclusive: 7.08 µM [activator, full curve, poor fit]

Question: With `CCCc1ccc(/C=C2\C(=O)c3ccccc3C(O)=C2C(=O)OCC)cc1` as the molecule, how does the Potency read?
Answer: active: 10 µM

Question: Which Potency does the source give for `CCOC(=O)c1cc2ccccc2n1CCN(CC)CC` here?
Answer: inconclusive: 35.5 µM [activator, partial curve, poor fit]

Question: With `CCN(CC)c1ccc(/C=N/NC(=O)Nc2nonc2N)cc1` as the molecule, how does the Potency read?
Answer: inconclusive: 8.91 µM [activator, partial curve, poor fit]

Question: With `CCOC(=O)C1=C(C)NC(C)=C(C(=O)OCC)C1c1cc(N)ccc1OC(F)F` as the molecule, how does the Potency read?
Answer: inconclusive: 1.26 µM [activator, partial curve]

Question: With `Cc1ccc(NC(=O)C(C)[n+]2ccccc2)cc1[N+](=O)[O-]` (centres undefined) as the molecule, how does the Potency read?
Answer: active: 28.2 µM

Question: For `COC(=O)c1cc(Br)c(=O)n(CCC2=CCCCC2)c1`, which Potency is on record?
Answer: inconclusive: 0.005 µM [activator, full curve]

Question: Which Potency does the source give for `COC(=O)c1cc2occc2n1CC(=O)Nc1ccc(C(C)C)cc1` here?
Answer: inactive

Question: Which Potency does the source give for `C=CCNc1nc(Nc2ccccc2F)nc(OCC)n1` here?
Answer: active: 11.2 µM

Question: With `CCN(C(=O)C(C)OC(=O)C1C(C(=O)OC)=C(C)NC(C)=C1C(=O)OC)c1ccccc1` (centres undefined) as the molecule, how does the Potency read?
Answer: inactive

Question: For `CCc1ccc2oc(-c3cc(NC(=O)c4cc([N+](=O)[O-])ccc4N4CCOCC4)ccc3Cl)nc2c1`, which Potency is on record?
Answer: inactive

Question: For `CN(c1ccc(C(=O)Nc2ccc3c(c2)OCCO3)cc1)S(C)(=O)=O`, which Potency is on record?
Answer: active: 11.2 µM

Question: Which Potency does the source give for `CCOC(=O)c1cc(-c2ccncc2)nc2c1c(C)nn2-c1ccccn1` here?
Answer: inactive

Question: With `O=C(Nn1cnnc1)C(c1ccccc1)c1ccccc1` as the molecule, how does the Potency read?
Answer: inconclusive: 2.51 µM [activator, partial curve, poor fit]

Question: With `O=C(N/N=C/C1CC=CCC1)c1cc2ccccc2cc1O` (centres undefined) as the molecule, how does the Potency read?
Answer: inactive

Question: With `Brc1ccccc1/C=N/Nc1ccccn1` as the molecule, how does the Potency read?
Answer: inconclusive: 7.94 µM [activator, partial curve]

Question: With `Cc1ccc2c(CC(=O)N3CCN(c4cccc(Cl)c4)CC3)coc2c1` as the molecule, how does the Potency read?
Answer: inactive

Question: Which Potency does the source give for `Cc1ccc(-n2ncc3c(NNC(=O)Cc4ccccc4)ncnc32)cc1` here?
Answer: inactive

Question: With `Cc1nc(N2CCOCC2)c(C#N)c(C)c1Br` as the molecule, how does the Potency read?
Answer: inactive

Question: Which Potency does the source give for `O=C(c1ccccc1)c1ccc(N2CCOCC2)c(F)c1` here?
Answer: inconclusive: 35.5 µM [activator, single point]

Question: With `CN1CCN(CCCNC(=O)c2cc3c(=O)oc4ccccc4c3s2)CC1` as the molecule, how does the Potency read?
Answer: inconclusive: 0.0355 µM [activator, full curve, poor fit]

Question: For `O=C(NCCNC(=O)C(c1ccccc1)c1ccccc1)c1ccco1`, which Potency is on record?
Answer: inconclusive: 0.0089 µM [activator, full curve]

Question: Which Potency does the source give for `COc1ccc(C(O)c2nc3ccccc3n2C)cc1OC` (centres undefined) here?
Answer: inactive

Question: For `COc1cccc(OCCSc2nnc3sc4ccccc4n23)c1`, which Potency is on record?
Answer: inconclusive: 35.5 µM [activator, single point]

Question: For `COc1ccc(C(C)NC(=O)c2ccccc2Cl)cc1OC` (centres undefined), which Potency is on record?
Answer: inconclusive: 0.1 µM [activator, full curve]

Question: Which Potency does the source give for `O=C(C1CCCN(S(=O)(=O)c2ccc(F)cc2)C1)N1CCCC1` (centres undefined) here?
Answer: inactive

Question: For `O=C(NC(=S)Nc1ccccc1N1CCCC1)c1ccc([N+](=O)[O-])cc1`, which Potency is on record?
Answer: inconclusive: 0.0079 µM [activator, full curve, poor fit]

Question: For `CC1=C(C(=O)Nc2cccc(C)c2C)C2(CCCCC2)OC1=O`, which Potency is on record?
Answer: inactive

Question: For `CCN(CC)c1ccc(NC(=O)COc2ccccc2C)cc1S(=O)(=O)Nc1ccccc1OC`, which Potency is on record?
Answer: inconclusive: 5.01 µM [activator, single point]

Question: For `O=C(NCCOc1ccccc1)c1ccccc1NC(=O)C1CCCO1` (centres undefined), which Potency is on record?
Answer: active: 11.2 µM

Question: Which Potency does the source give for `Cc1ccc(SCC(=O)Nc2ccc(-c3nnc(-c4ccco4)o3)cc2)cc1` here?
Answer: inconclusive: 15.8 µM [activator, single point]

Question: Which Potency does the source give for `CN(CCCC1CCCC1)C(=O)CCc1nnc(-c2ccccc2)o1` here?
Answer: active: 12.6 µM

Question: With `CC(C)CC(=O)Nc1ccc(C(=O)NNC(=O)C(c2ccccc2)c2ccccc2)cc1` as the molecule, how does the Potency read?
Answer: inconclusive: 11.2 µM [activator, partial curve, poor fit]

Question: With `O=C(CNC(=O)c1ccc2c(c1)OCO2)N/N=C(Br)/C=C/c1ccccc1` as the molecule, how does the Potency read?
Answer: inactive

Question: With `O=C(c1cccc(F)c1)N1CCC[C@@]2(CCN(Cc3nccs3)C2)C1` as the molecule, how does the Potency read?
Answer: inactive

Question: With `Cc1cccc(NC(=O)c2c(C)nc3ccccn23)c1` as the molecule, how does the Potency read?
Answer: inconclusive: 15.8 µM [activator, single point]

Question: For `COc1ccc(C(=O)/C=C/Nc2ccc(S(=O)(=O)Nc3ncccn3)cc2)cc1`, which Potency is on record?
Answer: inactive

Question: With `Cc1cccc(OCC(=O)Nc2cccc(O)c2)c1` as the molecule, how does the Potency read?
Answer: inactive

Question: Which Potency does the source give for `COC(=O)c1ccccc1NC(=O)CSc1nnc(-c2ccncc2)o1` here?
Answer: inconclusive: 0.112 µM [activator, full curve, poor fit]

Question: Which Potency does the source give for `Cc1ccc(Nc2nc(N)nc(CSC(=S)N3CCOCC3)n2)cc1` here?
Answer: inconclusive: 12.6 µM [activator, partial curve]

Question: Which Potency does the source give for `Cc1ccc2nc(-c3ccccc3)c(CN3CCOCC3)n2c1` here?
Answer: inconclusive: 35.5 µM [activator, single point]

Question: For `CCc1ccc(C(=O)COC(=O)C(CCSC)NC(=O)c2ccccc2)cc1` (centres undefined), which Potency is on record?
Answer: inconclusive: 0.224 µM [activator, full curve]

Question: For `Clc1ccccc1-c1nc(-c2ccncc2)no1`, which Potency is on record?
Answer: inconclusive: 3.98 µM [activator, single point]

Question: For `O=C(NCc1cccnc1)C(C(=O)c1ccc(F)cc1)n1ccccc1=O` (centres undefined), which Potency is on record?
Answer: inactive

Question: With `CC(C)Cc1ccc(/C=C/C(=O)NC2CC2)cc1` as the molecule, how does the Potency read?
Answer: inconclusive: 17.8 µM [activator, partial curve, poor fit]

Question: For `CC(C)Cn1c(N)c(C(=O)COC(=O)c2cccc(F)c2)c(=O)n(C)c1=O`, which Potency is on record?
Answer: inactive

Question: Which Potency does the source give for `COc1cccc(OC)c1OCCCOc1cccc2cccnc12` here?
Answer: inconclusive: 14.1 µM [activator, partial curve, poor fit]

Question: With `CCCCOC(=O)Nc1ccccc1C(=O)OC` as the molecule, how does the Potency read?
Answer: inconclusive: 0.0447 µM [activator, full curve, poor fit]

Question: With `CCC(=O)N(Cc1ccc(S(N)(=O)=O)cc1)C1CC(=O)N(c2ccccc2)C1=O` (centres undefined) as the molecule, how does the Potency read?
Answer: inactive

Question: For `O=C(c1ccco1)N1CCC[C@@]2(CCN(Cc3ccccc3)C2)C1`, which Potency is on record?
Answer: inactive

Question: With `Cc1nn(-c2cc(N3CCOCC3)ccc2N)c(=O)c2ccccc12` as the molecule, how does the Potency read?
Answer: inconclusive: 20 µM [activator, single point]

Question: Which Potency does the source give for `CC(CC(=O)Nc1nc2ccccc2[nH]1)c1ccccc1` (centres undefined) here?
Answer: inconclusive: 12.6 µM [activator, single point]

Question: With `CCCCCC(=O)Nc1nc2ccccc2[nH]1` as the molecule, how does the Potency read?
Answer: active: 14.1 µM

Question: For `COc1ccc(Cl)cc1S(=O)(=O)N1CCN(Cc2ccc3c(c2)OCO3)CC1`, which Potency is on record?
Answer: inconclusive: 0.0035 µM [activator, full curve, poor fit]

Question: For `Cc1cccc(-n2ncc3c(N4CCc5ccccc54)ncnc32)c1`, which Potency is on record?
Answer: inconclusive: 3.16 µM [activator, full curve]

Question: With `COc1ccc(-c2csc(NC(=O)c3cccs3)c2C(=O)O)cc1OC` as the molecule, how does the Potency read?
Answer: inactive

Question: With `CC(=O)Oc1ccc2c(=O)c(-c3ccccc3)coc2c1` as the molecule, how does the Potency read?
Answer: active: 25.1 µM

Question: Which Potency does the source give for `O=Nc1c2cc(-c3ccccc3)[nH]nc-2c2ccccc12` here?
Answer: active: 0.501 µM

Question: Which Potency does the source give for `CCc1cc(=O)oc2cc(C)c3c(-c4ccc(F)cc4)coc3c12` here?
Answer: inactive

Question: Which Potency does the source give for `CC(=O)c1c(C(C)=O)c(C)n(NC(=O)c2ccncc2)c1C` here?
Answer: active: 25.1 µM

Question: Which Potency does the source give for `C[C@@H](C(=O)OCn1nnc2ccccc2c1=O)N1C(=O)C2CCCCC2C1=O` (some centres undefined) here?
Answer: inactive

Question: Which Potency does the source give for `COc1ccc(NC(=O)Nc2ccc(Cc3ccncc3)cc2)cc1OC` here?
Answer: inactive

Question: For `O=C(Nc1ccc2oc(-c3cccc4c(Br)cccc34)nc2c1)c1ccc(Br)cc1`, which Potency is on record?
Answer: inactive

Question: With `CCc1nnc(NC(=O)CSc2nnc(-c3cccnc3)n2CCc2ccccc2)s1` as the molecule, how does the Potency read?
Answer: inconclusive: 3.16 µM [activator, partial curve, poor fit]

Question: With `CC(=O)Nc1cccc(C(=O)N/N=C/c2ccc(F)cc2)c1` as the molecule, how does the activity change, positive = activation read?
Answer: inactive: 26.8% [at 1.84 µM]

Question: With `CCCCC(=O)NC(=S)NNC(=O)CC` as the molecule, how does the Potency read?
Answer: inconclusive: 0.794 µM [activator, single point]

Question: With `O=C(CSc1nnc(-c2ccc(O)cc2)o1)Nc1ccc2c(c1)OCCO2` as the molecule, how does the Potency read?
Answer: active: 15.8 µM

Question: For `Cc1c(C(=O)N2CCc3ccccc3C2)oc2ccc(S(=O)(=O)N3CCCCCC3)cc12`, which Potency is on record?
Answer: inactive
